Assay results: PubChem BioAssay AID651820 (National Center for Advancing Translational Sciences (NCATS), 2012)
The whole screen tested about 340,000 compounds, of which about 12,000 (3.5%) were called active. The shares of active, inactive and inconclusive entries below differ from those in the screen. Calls come from the whole dose curve; as a rule, active = well fitted inhibition curve with a large enough effect; inconclusive = small, poorly fitted or top-dose-only effect, or another doubt; inactive = no such curve, though single readings can be large or run the other way. No potency is given beside an inconclusive call; the fits are too rough.

experiment: qHTS Assay for Inhibitors of Hepatitis C Virus (HCV); details: Huh7.5.1 HCVcc-Cre (HCVcc is cell-culture hepatitis C virus) infection, luciferase reporter, 44 h; series mostly up to 41.8 µM
Method in brief: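 Infectious HCVcc-Cre (~0.5 moi) was added to cells just after compound, with cells seeded 4 h earlier at 1,000 per well. Luciferase activity after 44 h culture reported infection; substrate was incubated 15 min at room temperature before reading.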
Potency is the fitted concentration of half-maximal effect; tags give direction and shape of the fitted curve.

Row | Compound | Potency
1 | COc1ccc(CCNc2oc(-c3ccc(OC)c(OC)c3)nc2C#N)cc1 | inconclusive [inhibitor, single point]
2 | Cc1cc(C(=O)N/N=C/c2cc(N=Nc3ccccc3)ccc2O)n[nH]1 | active: 22.4 µM
3 | CCOc1ccc(CCNC(=O)c2cnccn2)cc1OCC | inconclusive [inhibitor, partial curve, poor fit]
4 | O=[N+]([O-])c1ccc(NCCNS(=O)(=O)c2ccccc2)c(C(F)(F)F)c1 | inactive
5 | O=C(NCCc1nnc2ccc(NCCCN3CCOCC3)nn12)c1ccccc1 | inactive
6 | Cc1nc2c(-c3ccc(F)cc3)c(C)nn2c(C)c1CCC(=O)Nc1ccccc1 | inconclusive [inhibitor, partial curve]
7 | O=C(Nc1ccccc1-c1ccccc1)c1ccccc1Br | inactive
8 | COC(=O)CN(c1cccc(C)c1)S(=O)(=O)c1ccccc1 | inactive
9 | CC(=O)c1cnc(N2CCCCC2)nc1C | inactive
10 | Cc1noc(C)c1S(=O)(=O)Nc1ccc(C(C)C)cc1 | inactive
11 | O[C@@H]1CCCN2CCc3c([nH]c4ccccc34)[C@H]12 | inactive
12 | COc1ccc(CNC(=O)C2CCCN(S(=O)(=O)c3ccc4c(c3)CCCN4C(C)=O)C2)cc1 (stereo not given) | inconclusive [inhibitor, partial curve, poor fit]
13 | CC1=CC(C)(C)Nc2ccc(OC(=O)C(Cc3ccccc3)N3C(=O)c4ccccc4C3=O)cc21 (stereo not given) | inactive
14 | O=C(CCc1ccncc1)NC1CCCc2c1cnn2-c1cc(F)cc(F)c1 (stereo not given) | inactive
15 | Cc1ccc(-c2nc(-c3ccncc3)no2)cc1C | inconclusive [inhibitor, single point]
16 | Cc1ccc(-c2cc(C(=O)NCCc3ccccn3)c3ccccc3n2)c(C)c1 | inconclusive [inhibitor, full curve]
17 | Cc1cccn2c(=O)c(C(=O)NC3CCCCC3C)c(O)nc12 (stereo not given) | inconclusive [inhibitor, single point]
18 | CN(C)CCCn1c(NCc2ccc3c(c2)OCO3)nc2ccccc21 | inconclusive [inhibitor, single point]
19 | CCOC(=O)c1ccc(-c2ccc(/C=N/NC(=O)Cc3nnc(N)s3)o2)cc1 | inactive
20 | O=C(NNC(=S)NCc1ccccc1)c1ccc(Br)cc1 | inactive
21 | COc1cccc(C(=O)N2c3ccccc3Sc3ccccc32)c1 | inconclusive [inhibitor, single point]
22 | C=CCn1c(SCC(=O)NCCCO)nc2sc3c(c2c1=O)CCC3 | inactive
23 | O=C(CCC1CCCN(C(=O)c2cc3ccccc3o2)C1)NCc1ccc(F)c(F)c1 (stereo not given) | inactive
24 | CC(C)Cn1c(N)c(C(=O)COC(=O)CC23CC4CC(CC(C4)C2)C3)c(=O)n(C)c1=O | active: 6.31 µM

Row | Compound | Potency
25 | Cc1ccc(S(=O)(=O)N2CCOC2CNC(=O)C(=O)NCc2ccncc2)cc1 (stereo not given) | inconclusive [inhibitor, single point]
26 | O=C1CCN(C(=O)CNC(=O)Cc2ccccc2)CC1 | inconclusive [inhibitor, single point]
27 | CC(=O)c1c(C)[nH]c(C(=O)OCc2ccc([N+](=O)[O-])cc2)c1C | active: 5.62 µM
28 | Cc1cccc(N2CCN(C(=O)c3ccncc3)CC2C)c1 (stereo not given) | inconclusive [inhibitor, single point]
29 | CCn1c(CSc2nc3ccccc3s2)nnc1SCC(N)=O | inconclusive [inhibitor, single point]
30 | COc1cc(OC)c(NC(=O)CCCn2c(=O)oc3ccccc32)cc1Cl | inconclusive [inhibitor, single point]
31 | Cc1onc(-c2c(Cl)cccc2Cl)c1C(=O)Nc1ccc2c(C(F)(F)F)cc(=O)oc2c1 | inconclusive [inhibitor, single point]
32 | C=C1C(O)[C@@H]2O[C@]3(CC[C@H](/C=C/C(C)[C@@H]4CC(C)=CC5(O[C@H](C[C@@](C)(O)C(=O)O)CCC5O)O4)O3)CC[C@H]2O[C@@H]1C(O)CC(C)[C@H]1OC2(CCCCO2)CCC1C (stereo not given in full) | inconclusive [inhibitor, partial curve, poor fit]
33 | CCOC(=O)C(C)Sc1nc(-c2cccs2)ccc1C#N (stereo not given) | active: 14.1 µM
34 | Cc1ccccc1C(=O)N1CCc2ccccc2C1 | inactive
35 | O=C(C1CCC1)N1CCc2cc(S(=O)(=O)NCc3cccnc3)ccc21 | inconclusive [inhibitor, partial curve]
36 | Cc1ccnc(NC(=O)c2cccc(S(=O)(=O)Nc3ccc(C)cc3C)c2)c1 | inconclusive [inhibitor, single point]
37 | O=C(NCc1ccccc1)c1ccc(CN2CCC(Cc3ccccc3)CC2)cc1 | active: 10 µM
38 | COC(=O)c1ccc(CN(c2ccc(C(=O)O)c(O)c2)S(=O)(=O)c2ccc(Cl)c([N+](=O)[O-])c2)cc1 | inconclusive [inhibitor, single point]
39 | CCOC(=O)NC(=O)COC(=O)c1cccc2ccccc12 | inconclusive [inhibitor, partial curve]
40 | CC(=O)N1CCc2cc(S(=O)(=O)C(C)CC(=O)Nc3ccc(OC(F)(F)F)cc3)ccc21 (stereo not given) | inconclusive [inhibitor, single point]
41 | CCOc1ccc2nc(SCC(=O)NC3CC3)sc2c1 | inconclusive [inhibitor, single point]
42 | CCOC(=O)[C@H]1[C@H]2COc3ccc(Br)cc3[C@@H]2N2C(=O)c3cc(OC)c(OC)cc3NC(=O)[C@@]12C | inconclusive [inhibitor, partial curve]
43 | COc1ccc(Cl)cc1NC(=O)CN(C)CC(=O)Nc1ccc(C)cc1Br | inconclusive [inhibitor, single point]
44 | CC(C)(C)C(=O)CSc1ncnc2c1cnn2Cc1ccccc1 | inconclusive [inhibitor, partial curve]
45 | O=C(CN1CCN(S(=O)(=O)c2ccc(Cl)cc2)CC1)Nc1ccc(F)cc1F | inactive
46 | O=C(CSc1n[nH]c(-c2cccnc2)n1)Nc1ccccc1[N+](=O)[O-] | inactive
47 | CCOc1cc(C(=O)O/N=C(\N)c2ccccn2)cc(OCC)c1OCC | inconclusive [inhibitor, full curve]
48 | N/C(=N\OC(=O)CCC1CCCC1)c1ccc(Cl)cc1 | inactive

Row | Compound | Potency
49 | Cc1ncc([N+](=O)[O-])n1CC(=O)Nc1ccc(Br)cc1 | inactive
50 | Cc1cc(C)c(NC(=O)c2ccc3c(c2)NC(=O)C(C)S3)c(C)c1 (stereo not given) | inconclusive [inhibitor, single point]
51 | O=S(=O)(c1ccc(S(=O)(=O)N2CCCN(Cc3ccccc3)C2)cc1)N1CCCCCC1 | inconclusive [inhibitor, single point]
52 | Cc1ccc(/C=N/N(C)S(=O)(=O)c2ccc(C)cc2)cc1 | inconclusive [inhibitor, single point]
53 | C[C@@]12C(=O)N(Cc3ccccc3)CC(=O)N1[C@H]1c3ccccc3OC[C@@H]1[C@@H]2c1ccccc1 | inconclusive [inhibitor, single point]
54 | CC(C)(C)S(=O)(=O)Cc1nc(-c2ccc(Cl)c(Cl)c2)cs1 | inconclusive [inhibitor, single point]
55 | Cc1occc1C(=O)N(C)Cc1nc(-c2ccc(Cl)cc2)no1 | inconclusive [inhibitor, full curve, poor fit]
56 | CCCn1c(Nc2nc3ccccc3n2C)nc2ccccc21 | inconclusive [inhibitor, single point]
57 | CCN(CC)S(=O)(=O)c1ccc(/C=C/C(=O)OCC(=O)Nc2ccc(S(N)(=O)=O)cc2)cc1 | inactive
58 | Cc1cc(C)c(C)c(S(=O)(=O)N2CCN(C(=S)NCC3CCCO3)CC2)c1C (stereo not given) | inconclusive [inhibitor, partial curve, poor fit]
59 | CCN(CC)c1ccc(CNCc2cccs2)cc1 | inconclusive [inhibitor, single point]
60 | CN(C)S(=O)(=O)c1cc(NC(=O)CNCc2ccc(F)cc2)ccc1Cl | inconclusive [inhibitor, single point]
61 | CC1CCN(CC(O)COC2CCC(C(C)(C)C)CC2)CC1 (stereo not given) | inconclusive [inhibitor, full curve, poor fit]
62 | COc1ccccc1-c1sc2ccccc2c1-c1ccc(O)cc1 | active: 5.62 µM
63 | Cn1nc(CC(=O)Nc2ccc3c(c2)OCCO3)c2ccccc2c1=O | active: 6.31 µM
64 | Cc1ccc(C)c(OCCC(=O)N(C)CC(=O)Nc2c(C)cccc2C)c1 | inactive
65 | CCCCNC(=S)NCc1ccc2[nH]c3c(c2c1)CCCC3 | inconclusive [inhibitor, single point]
66 | COc1cccc(-c2ocnc2C(=O)Nc2ccc(N3CCOCC3)cc2N2CCOCC2)c1 | inconclusive [inhibitor, full curve, poor fit]
67 | COc1ccc(C(CNC(=O)c2oc3ccccc3c2C)N2CCCC2)cc1 (stereo not given) | inconclusive [inhibitor, single point]
68 | CCN(CC)c1ccc(S(=O)(=O)N2CCOCC2)cc1NC(=O)CN1CCN(Cc2ccccc2)CC1 | inconclusive [inhibitor, single point]
69 | CC1CC(C)CN(CCCNC(=O)C2CCCN(S(=O)(=O)N3CC(C)CC(C)C3)C2)C1 (stereo not given) | inactive
70 | CC(C)=C(NC(=O)c1ccccc1)C(=O)Nc1ccc(C(=O)O)cc1 | inactive
